Test results taken from the supplement of paper PMC3334620.
Over roughly 33,000 sequences, “E-score (-0.5 to 0.5)” has its median near -0.04; the highest 2% begin near 0.36. This is one part of the list.

biological target: T1, Hmlalpha2 (UniProt P0CY09); assay: PBM E-score (8-mer binding enrichment) (E-score (-0.5 to 0.5)); higher = stronger / more preferred TF binding; most listed sequences are background and not binding sites; details: protein concentration: 200 nM; construct: GST-full length
T1 sequence: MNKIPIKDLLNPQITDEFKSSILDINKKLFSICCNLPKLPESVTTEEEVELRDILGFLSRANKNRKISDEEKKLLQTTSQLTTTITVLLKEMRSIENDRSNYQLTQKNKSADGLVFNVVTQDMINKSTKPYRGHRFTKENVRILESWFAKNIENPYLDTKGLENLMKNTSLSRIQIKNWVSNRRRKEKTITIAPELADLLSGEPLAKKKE
Description: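 Universal 'all 10-mer' protein binding microarrays (Agilent AMADID 015681) probed with GST-tagged S. cerevisiae TFs (full-length or DBD) made by in vitro transcription/translation (PURExpress), about 100-200 nM. Bound TF was detected with fluorescent anti-GST. Each ungapped 8-mer (which stands for itself and its reverse complement) is scored by the PBM enrichment score (E-score), a modified Wilcoxon-Mann-Whitney statistic from -0.5 to +0.5, computed with the Universal PBM Analysis Suite. Scale: above 0.35 generally sequence-specific binding.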

Sequence | PBM E-score
ATACTCTG | 0.143
AAGGAGAA | -0.0368
CCGGATGC | -0.178
CTTGATTC | 0.012
ACCCAACA | -0.0487
ACGAAGAG | 0.0451
AGAGCTAA | -0.129
ACGATGTG | 0.19
TCCTTCAA | 0.00135
TCCATCCA | -0.166
AGCTACGA | -0.109
CATTCTCC | -0.0234
CTCAGCCC | -0.268
AAGGCGGG | -0.1
GTCGCTCA | -0.101
CCTAGTCC | -0.138
TCTGTACA | 0.258
AGATCTGA | -0.0313
CGATTTTC | 0.00894
ACGCGTCG | 0.276
CGCGTGTA | 0.458
AGTATTGA | 0.0644

Sequence | PBM E-score
CCTCTGCG | -0.27
AAACGACA | 0.235
ACGTAAAG | 0.372
GATCAGGA | -0.338
GATAGATA | -0.0695
ACAGGACT | -0.101
AAGATGGT | 0.134
CGAATTGA | -0.0593
GATTGCAC | 0.121
CTCCACCC | -0.222
AAGGAACT | -0.108
ACATATAG | 0.281
TGTGAAAA | 0.16
AATGACGC | 0.104
GACGCGCA | 0.00745
CGAACCGC | 0.0375
TATCATAA | 0.105
CGACGCGC | 0.145
ATCGAGAG | -0.0481
AGTGAGCA | 0.0429
AGGGGTAA | 0.00981
AACCGGGG | -0.223

Sequence | PBM E-score
CGAGGCGC | -0.206
AACACCGG | 0.171
GCCTTAAC | 0.116
CTCTGGGC | -0.162
CCTGTAGC | -0.11
CTTGTGCA | 0.133
AGAGCGTA | 0.0145
TACGATGA | 0.171
ACCCTACC | -0.244
CCACTGAC | -0.29
CGCACCGA | -0.192
ACAGTTCG | 0.0364
AATTCGAC | -0.124
CCGTTTCG | -0.00491
CGTTGCAC | 0.0273
GATATCAC | -0.0157
TGGACAAA | 0.00245
GGCCAGCC | -0.192
CACTGTCG | -0.142
CGAAGGAC | -0.0658
ACAAGCTC | 0.163
TTTGAAAA | 0.229

Sequence | PBM E-score
ATTTATTA | 0.272
GGACTGAC | -0.234
AATTTGAG | -0.0616
ATCTCCAT | -0.127
AATCAGAA | -0.14
ACTATTTC | 0.0764
ACCCCCCG | -0.215
GACTAGTA | 0.0575
GCGGTCCC | -0.227
TCTCTACA | 0.296
AGGCACGA | -0.166
CAGAGAAC | -0.00654
TTAGGGAA | 0.103
ATGAAAGC | 0.00359
CCTCGATA | 0.0689
AGTCTGGA | -0.0416
AACAAACG | 0.194
GCTTCCTA | 0.0616
ACGTGCCC | 0.123
GACTGCCA | -0.119
GCCGCCCA | -0.173
AATGAAGG | -0.08

Sequence | PBM E-score
ACGCACAA | 0.151
AGTCAAAG | -0.0785
CACGCCTA | 0.137
CCTAGAGC | -0.169
CGGATTAC | 0.258
CGTTGGAG | 0.0203
GTTTCACA | 0.244
GGCTTTCA | -0.162
CAGATTTC | -0.132
ACAGTTTA | 0.182
GAGCACCC | -0.38
CAAGTCAC | -0.163
GGGGATAC | -0.165
CGCAACGC | 0.0833
GCGCACAC | -0.189
GTCAGGGA | -0.256
TACGGATA | 0.0901
GCTCGGTA | -0.14
AGCATAAC | 0.0468
ATTGACTC | -0.122
ATGTTCGA | 0.191
